# Experimental data as given in the supplement of paper PMC7826260.
# Some of the results follow. The data describe in vitro nicking of single-stranded DNA by Rep domains for 1 h at 37 °C with 3 µM enzyme; only the middle of the 90-letter strands is printed. A value is the log2 ratio of uncut reads to the pool without enzyme; strong cutting gives strongly negative numbers. There is no active / inactive call. The scaling is to total reads; where an enzyme cuts many sequences, the uncut ones exceed 0.
# Assays:
# Assay in all cases: uncleaved DNA left, log2 of reads against the no-enzyme library (log2 ratio); higher = less cleavage (more negative = more Rep cleavage of the k-mer); sequences stand for … in CTCGTCCG…ACCGGAGA
# [1] = system: T1, Rep nickase domain of Muscovy duck circovirus
# T1 sequence (residues 1-111 of Rep, tag left off): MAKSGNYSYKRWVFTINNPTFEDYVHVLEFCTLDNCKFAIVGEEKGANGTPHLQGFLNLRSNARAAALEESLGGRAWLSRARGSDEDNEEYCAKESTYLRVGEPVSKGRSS
# Protocol: (§1)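 A pool of 90-nt single-stranded DNAs with seven random bases just before the constant AC of the nick site (name = the seven bases) was cut by 3 µM recombinant His6-SUMO-tagged Rep nickase domain (300 nM DNA, 50 mM HEPES pH 8.0, 50 mM NaCl, 1 mM MnCl2, 1 h, 37 °C, three replicates). Uncut DNA was amplified and sequenced.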
# [2] = system: T2, Rep nickase domain of banana bunchy top virus
# T2 sequence (residues 1-94 of Rep, tag left off): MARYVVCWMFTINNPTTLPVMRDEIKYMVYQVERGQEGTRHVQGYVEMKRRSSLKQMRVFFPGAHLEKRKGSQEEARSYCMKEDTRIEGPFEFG
# Protocol: as §1
# [3] = system: T3, Rep nickase domain of cabbage leaf curl virus
# T3 sequence (residues 1-116 of Rep, tag left off): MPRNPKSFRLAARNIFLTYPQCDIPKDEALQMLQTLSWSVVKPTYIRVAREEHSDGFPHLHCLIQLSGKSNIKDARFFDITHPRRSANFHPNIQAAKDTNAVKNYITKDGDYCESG
# Protocol: as §1
# [4] = system: T4, Rep nickase domain of chickpea chlorotic dwarf virus
# T4 sequence (residues 1-124 of Rep, tag left off): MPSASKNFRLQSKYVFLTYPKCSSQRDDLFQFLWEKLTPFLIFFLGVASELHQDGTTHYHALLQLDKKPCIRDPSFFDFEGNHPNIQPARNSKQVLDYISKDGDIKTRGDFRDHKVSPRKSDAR
# Protocol: as §1
# [5] = system: T5, Rep nickase domain of faba bean necrotic yellows virus
# T5 sequence (residues 1-98 of Rep, tag left off): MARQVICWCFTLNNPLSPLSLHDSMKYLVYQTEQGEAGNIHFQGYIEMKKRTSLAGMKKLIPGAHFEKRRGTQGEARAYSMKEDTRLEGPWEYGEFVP
# Protocol: as §1
# [6] = system: T6, Rep nickase domain of maize striate mosaic virus
# T6 sequence (residues 1-117 of Rep, tag left off): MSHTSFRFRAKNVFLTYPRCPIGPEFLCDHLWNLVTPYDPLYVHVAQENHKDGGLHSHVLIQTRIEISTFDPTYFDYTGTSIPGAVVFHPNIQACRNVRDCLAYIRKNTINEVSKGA
# Protocol: as §1
# [7] = system: T7, Rep nickase domain of porcine circovirus 2
# T7 sequence (residues 2-116 of Rep, tag left off): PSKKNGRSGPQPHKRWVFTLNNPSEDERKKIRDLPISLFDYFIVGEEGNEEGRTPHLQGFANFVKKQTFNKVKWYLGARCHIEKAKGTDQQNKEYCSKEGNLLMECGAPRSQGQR
# Protocol: as §1
# [8] = system: T8, Rep nickase domain of tomato golden mosaic virus
# T8 sequence (residues 1-124 of Rep, tag left off): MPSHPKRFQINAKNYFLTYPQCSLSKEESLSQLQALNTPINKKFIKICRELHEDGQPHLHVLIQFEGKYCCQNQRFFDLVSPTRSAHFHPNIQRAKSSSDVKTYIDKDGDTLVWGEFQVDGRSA
# Protocol: as §1
# [9] = system: T9, Rep nickase domain of tomato yellow leaf curl virus
# T9 sequence (residues 1-136 of Rep, tag left off): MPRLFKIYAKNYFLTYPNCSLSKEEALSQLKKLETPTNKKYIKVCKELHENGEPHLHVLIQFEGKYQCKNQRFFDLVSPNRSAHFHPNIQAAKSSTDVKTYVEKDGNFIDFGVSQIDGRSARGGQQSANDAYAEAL
# Protocol: as §1
# [10] = system: T10, Rep nickase domain of wheat dwarf virus
# T10 sequence (residues 1-137 of Rep, tag left off): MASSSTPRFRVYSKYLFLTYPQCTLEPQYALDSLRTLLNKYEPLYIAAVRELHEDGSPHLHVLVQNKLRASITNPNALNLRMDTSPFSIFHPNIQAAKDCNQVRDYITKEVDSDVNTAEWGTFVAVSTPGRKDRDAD
# Protocol: as §1
Sequence,uncleaved DNA left (log2) [1],uncleaved DNA left (log2) [2],uncleaved DNA left (log2) [3],uncleaved DNA left (log2) [4],uncleaved DNA left (log2) [5],uncleaved DNA left (log2) [6],uncleaved DNA left (log2) [7],uncleaved DNA left (log2) [8],uncleaved DNA left (log2) [9],uncleaved DNA left (log2) [10]
TTATAGC,0.104,-0.00899,-0.414,-0.558,0.0494,-1.1,0.172,-0.0604,0.0366,-0.105
GATGGGT,0.117,0.0499,0.269,0.945,0.0519,1.3,-0.00431,0.11,-0.0269,0.0721
GCGAGTC,-0.0334,-0.0261,0.137,0.533,0.0254,0.603,0.086,0.102,0.0454,0.0629
CACGGGC,0.0794,0.0387,0.0702,0.251,-0.0831,-0.146,0.0521,0.00508,0.0139,-0.0266
TCTAAAG,-0.0451,-0.125,-0.764,-0.697,0.0614,-1.28,0.243,-0.0373,0.0759,-0.117
ATAACAC,-0.085,0.046,-0.621,-1.57,0.0113,-0.814,0.0403,-0.0735,-0.0203,-0.0425
ATGGCAG,-0.0231,0.102,-0.498,-0.187,0.17,-0.772,0.316,0.197,0.158,0.0339
GTCATTT,-0.019,0.132,0.255,0.619,0.00636,1.57,-0.000488,0.0914,0.162,0.0122
TTCTTTC,-0.0237,-0.125,0.197,-0.275,0.0576,-0.533,-0.0687,-0.107,-0.134,0.00496
TTATAGG,0.0105,-0.0628,0.429,1.31,0.061,1.56,0.119,0.0248,-0.00191,0.0938
CCGGGGA,-0.0596,-0.0495,0.773,1.21,-0.146,2.12,-0.0267,-0.0557,-0.0925,-0.0161
TCCGCCT,-0.0266,-0.227,-0.0714,-1.4,-0.149,-0.469,-0.182,-0.232,-0.18,-0.274
CGAGATC,0.0642,0.16,0.303,0.334,0.174,0.0296,0.121,0.081,0.00139,0.105
GAGCAAC,0.0297,0.092,0.224,0.597,0.0365,0.925,-0.292,-0.0161,-0.00767,0.0665
CGCCCAT,0.344,0.248,0.283,0.061,0.164,0.263,0.079,-0.0273,0.291,0.186
